In all, about 50,000 compounds went through this assay and about 800 (1.6%) showed an effect of 50% or more. The list shows a part of the results.

For this experiment, the target named is Bcl-2-like protein 10 (Homo sapiens) (UniProt Q9HD36). In words: Phenotype converters, Bcl-B/TR3 peptide binding displacement, primary biochemical FP (AID 1240).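 Note: 0% = Bcl-B with tracer peptide and DMSO and 100% = tracer peptide lacking Bcl-B.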 The settings on record: GST-Bcl-B / FITC-TR3 peptide fluorescence polarization; stronger effect = higher value; compound at 3.75 mg/L.
UniProt Q9HD36, sequence (Q9HD36 whole entry, looked up): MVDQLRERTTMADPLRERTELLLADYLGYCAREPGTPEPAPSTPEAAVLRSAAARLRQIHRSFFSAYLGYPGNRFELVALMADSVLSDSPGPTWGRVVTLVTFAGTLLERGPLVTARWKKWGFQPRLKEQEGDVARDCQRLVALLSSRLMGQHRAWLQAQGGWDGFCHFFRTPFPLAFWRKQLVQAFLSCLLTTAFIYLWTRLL
On to `O=C(CSc1nnnn1-c1ccccc1)N1c2ccccc2Sc2ccccc21`, for which the displacement is 6.6%.

As for `Cc1ccc(C(=O)N/C(=C\c2sccc2C)C(=O)NCC(C)C)cc1`, the displacement was determined as 6.3%.

Take `CC1=C(C(=O)Nc2ccc(Cl)cc2)C(c2ccc(Cl)cc2)NC(=O)N1` (configuration not stated): the displacement is -6.7%.

Take `COc1ccccc1NC(=O)c1c(NC(=O)C(C)(C)C)sc2c1CCCC2`: the displacement is -1%.

`Cn1/c(=N/N=C/c2c(O)ccc3ccccc23)sc2ccccc21`: the displacement was found to be 9.8%.

With `CCN(CC)c1ccc(/C=C2\C(=O)NC(=S)N(c3ccc(F)cc3)C2=O)c(O)c1`, the displacement came out at 6.6%.

Consider `O=C(COc1ccc(Cl)cc1)Nc1cc([N+](=O)[O-])ccc1F`, for which the displacement came to 6.6%.

`COc1cc(/C=C2/SC(=S)NC2=O)ccc1OC(=O)c1cccc(Br)c1`: the displacement turned out to be 34.3%.

On to `O=C(COc1ccc(Cl)cc1Cl)N1CCN(C(=O)COc2ccc(Cl)cc2Cl)CC1`, for which the displacement was found to be 2%.

For `COc1cc(NC(=O)COc2ccccc2Cl)cc(OC)c1`, the displacement was -10.1%.

Take `CC(=O)Nc1ccc(S(=O)(=O)N2CCN(c3ccc(F)cc3)CC2)cc1`: the displacement is 13.7%.

For the compound `Cc1cc(C)c(NC(=S)NC(NC(=O)c2ccc(Br)cc2)C(Cl)(Cl)Cl)c(C)c1` (configuration not stated), the displacement is -0.9%.

With `CCCC1CC(C(=O)NC(C(C)O)C2OC(SC)C(O)C(O)C2O)N(C)C1` (configuration not stated), the displacement is -1.2%.

`COc1ccc(CCNC(=O)COc2ccccc2Cl)cc1`: the displacement is -5.3%.

With `O=C(NC(=S)Nc1cccc(SC(F)(F)C(F)(F)C(F)(F)F)c1)c1cccs1`, the displacement is -3.3%.

As for `CCOc1cc(OCC)cc(C(=O)Nc2cccc(-c3nc4ncccc4o3)c2C)c1`, the displacement was -0.2%.

With `CSc1ccc(C=NN2CCN(Cc3ccccc3)CC2)cc1`, the displacement is -0.6%.

`CC(C)CCNC(=O)c1ccccc1I`: the displacement was -10.3%.

As to `COc1ccc(N2C(=O)/C(=C/c3ccc(I)o3)SC2=S)cc1`, the displacement is 14.6%.

Regarding `O=C(O)CN(c1cccc(Cl)c1)S(=O)(=O)c1ccccc1`, the displacement turned out to be 13.3%.

Consider `Cc1cc(OCC(=O)Nc2ccc(NC(=O)c3ccccc3)c(Br)c2)cc(C)c1Cl`, for which the displacement amounted to 7.5%.

Regarding `CCOc1ccccc1NC(=O)c1cccc([N+](=O)[O-])c1`, the displacement was 1.1%.

`Nc1nnc(CC(=O)N/N=C/c2cccc(Cl)c2)s1`: the displacement was 5.8%.

As to `O=C(O)c1ccc(N2C(=O)CC(N3CCN(c4ccccc4F)CC3)C2=O)cc1` (configuration not stated), the displacement is 7.2%.

For the compound `O=C(Nc1c[nH]c(=O)[nH]c1=O)c1ccccc1F`, the displacement came out at 14.5%.

For `CCCCOc1ccc(C2C(C#N)=C(N)OC3=C2C(=O)CC(C)(C)C3)cc1` (configuration not stated), the displacement is -11.6%.

With `COc1ccc(C)cc1NC(=O)Cc1cccc2ccccc12`, the displacement is -2.5%.

With `COc1cc(C(=O)c2cc(Br)ccc2NC(=O)COc2ccccc2)cc(OC)c1OC`, the displacement came to 57.3%.

As to `COC(=O)C1=C(C)N(c2ccc(OC)cc2)C(=O)/C1=C\c1ccc(O)c(OC)c1`, the displacement came to 8.6%.

`COC(=O)C1=C(C)N(C)C(=O)NC1c1cccc(O)c1` (configuration not stated): the displacement was -5.5%.

Regarding `CC1(C)Nc2ccccc2-c2c1sn(-c1cccc(Cl)c1)c2=S`, the displacement turned out to be 2.4%.

On to `O=C(/C=C/c1ccccc1)NCc1ccc(F)cc1`, for which the displacement is -8.7%.

In the case of `CSc1cccc(NCc2ccc([N+](=O)[O-])cc2)c1`, the displacement was -6.9%.

For the compound `O=C(CSc1nc2sc3c(c2c(=O)[nH]1)CCCC3)NCc1ccccc1`, the displacement was -18.5%.

Turning to `COc1ccc(C2=NN(C(=O)CCC(=O)O)C(c3cccc([N+](=O)[O-])c3)C2)cc1` (configuration not stated), the displacement is -1.4%.

For the compound `CCC(=O)N1c2ccccc2NC2=C(C(=O)CC(c3ccccc3)C2)C1c1ccc(F)cc1` (configuration not stated), the displacement is -4.6%.

Take `COc1cccc(/C=C2/SC(=O)N(c3ccccc3)C2=O)c1O`: the displacement came to 10.6%.

For the compound `CC(Cc1ccccc1)N=C1NS(=O)(=O)c2cc([N+](=O)[O-])ccc21` (configuration not stated), the displacement is 10%.

With `COC(=O)c1ccc(OCC(O)CN2CCCCC2)cc1` (configuration not stated), the displacement was -10.4%.

Consider `Cc1cc(Cl)ccc1NC(=O)COc1ccccc1C`, for which the displacement is -7%.

As to `O=C(c1cnn2c(C(F)(F)F)cc(-c3ccco3)nc12)N1CCN(C(c2ccccc2)c2ccccc2)CC1`, the displacement was -6.1%.

`COc1cc2c(=O)c3ccccc3sc2c(OC)c1OC`: the displacement is -14.2%.

For `OC(CNc1ccc(Br)cc1)COc1ccc(OCC(O)CNc2ccc(Br)cc2)cc1` (configuration not stated), the displacement worked out at 5.4%.

Turning to `Cc1ccc(-c2nc3ccc(C)cn3c2NC(=O)c2ccccc2)cc1`, the displacement was found to be 21%.

As for `COc1cc(OC)cc(C(=O)N2CCN(C3CCN(Cc4ccccc4)CC3)CC2)c1`, the displacement was 0.3%.

As to `CN1CCN(NC(=O)NC23CC4CC(CC(C4)C2)C3)CC1`, the displacement was -3.8%.

In the case of `Cc1ccc(N=Cc2cc(Br)ccc2O)cc1F`, the displacement is -4.1%.

In the case of `O=C(Nc1ncc(Cc2ccc(Cl)cc2)s1)c1ccccc1Cl`, the displacement amounted to 6.4%.

Turning to `COc1ccc(/C=C/C(=O)NCc2ccc(Cl)cc2Cl)cc1`, the displacement is 6.5%.

Turning to `Cc1ccc(C(=O)O)cc1N1C(=O)c2ccc(C(=O)O)cc2C1=O`, the displacement was found to be 6.5%.

For `O=C1c2cccc3cccc(c23)C(=O)N1/N=C/c1ccc(Cl)cc1`, the displacement was 21.2%.

In the case of `CCOc1ccc2nc(SCC(=O)Nc3cc(C)ccc3C)sc2c1`, the displacement came out at 3.4%.

Regarding `O=C1NC(=Nc2ccc(Cl)cc2)SC1Cc1cccc(C(F)(F)F)c1` (configuration not stated), the displacement was -4.4%.

Turning to `O=C1CCCC2=C1C(c1ccc(Cl)cc1)C1C(=O)c3ccccc3C1=N2` (configuration not stated), the displacement was -4.3%.

For `OCc1ccc(-c2ccc(OC(F)(F)F)cc2)o1`, the displacement was -12.3%.

In the case of `CC1=C(C(=O)Nc2ccccc2)C(c2ccc(O)c(O)c2)NC(=S)N1` (configuration not stated), the displacement is 10.7%.

Regarding `COc1ccc(CC(=O)O/N=C(\N)c2ccc(Cl)cc2)cc1OC`, the displacement is -4.4%.

Regarding `COc1ccc(-c2nc3ccccc3c(C(=O)NC(C)(C)C)c2C)cc1`, the displacement was 12.2%.

As for `O=C(COc1ccc(Cl)cc1Cl)Nc1ccc(NC(=O)COc2ccc(Cl)cc2Cl)cc1`, the displacement amounted to 10.5%.

With `O=C1CSC(=O)N1CN1CCCCC1`, the displacement came out at 10.3%.

Take `COc1ccc(S(=O)(=O)N2CCN(C(=O)c3ccc(-c4ccccc4)cc3)CC2)cc1`: the displacement was -3.6%.

On to `Cc1sc2nc(C)n(CCO)c(=O)c2c1C`, for which the displacement was determined as 12.2%.

For `COc1ccc(CN2CCN(C3CCC(C)CC3)CC2)c(OC)c1OC` (configuration not stated), the displacement was -18.1%.

For `CC(C)c1ccc(/C=N/N=C2/NC(=O)CS2)cc1`, the displacement was -11.3%.

In the case of `C1CCC(N2NC2C2NN2C2CCCCC2)CC1` (configuration not stated), the displacement was -1.7%.

For `COc1ccccc1CNC(=O)C(=O)Nc1ccc(C)c(C)c1`, the displacement is 1%.

In the case of `CC1=NN(c2ccccc2)C(=O)/C1=C/c1cccn1-c1ccc([N+](=O)[O-])cc1`, the displacement was -0.8%.

With `COc1cccc(/C=N/NC(=O)C(=O)N2CCCC2)c1`, the displacement was 9.6%.

As for `CCc1cccc(NC(=O)CCc2ccccc2)c1`, the displacement was -7%.

In the case of `COc1ccc(/C=C/C(=O)NC(=S)Nc2ccccc2C)cc1OC`, the displacement came to 8.5%.

On to `CCCC(=O)Nc1ccc(NC(=O)c2ccc(Br)o2)cc1`, for which the displacement was 6.6%.

For `O=C1c2ccccc2C(=O)N1C1C(=O)N(c2ccc(Br)cc2)C1c1ccccc1` (configuration not stated), the displacement is -2.1%.

For the compound `Cc1cc(C)c2c(N)c(C(=O)c3ccc(Br)cc3)sc2n1`, the displacement is -7.3%.

For the compound `O=S(=O)(O)c1c(O)cnc2ccccc12`, the displacement is 8.7%.

With `O=C(Nc1ccc(Cl)cc1Cl)c1nn2c(c1Cl)NC(c1ccc(Cl)cc1)CC2C(F)(F)F` (configuration not stated), the displacement turned out to be 3%.

Turning to `O=C(CN(Cc1ccccc1)Cc1ccccc1)NCCNc1ccc([N+](=O)[O-])cc1Cl`, the displacement is -3.7%.

For the compound `CCCCOc1ccc(N/C(N)=N/c2nc(C(F)(F)F)cc(=O)[nH]2)cc1`, the displacement was -11.9%.

On to `CN1CCN(C2=NC(=O)/C(=C\c3cccc4c3OCO4)S2)CC1`, for which the displacement is -2.6%.

`CN(C)/C=C1\N=C(C(c2ccccc2)c2ccccc2)OC1=O`: the displacement was -11.7%.

For the compound `COc1ccccc1-c1c(C(F)(F)F)oc2c(CN3CCCC3)c(O)ccc2c1=O`, the displacement is 11.4%.

As to `C#CCOc1ccc2c3c(c(=O)oc2c1)CCC3`, the displacement is -4%.

As to `C=CCSc1nnc2c3ccccc3n(CC=C)c2n1`, the displacement turned out to be 8.5%.

`COc1ccc(CNC(=O)CSc2cccc3cccnc23)cc1`: the displacement was 11.7%.

Regarding `Cc1cc(C)cc(NC(=O)C(=O)NCc2ccccc2)c1`, the displacement was determined as 9.9%.

For the compound `CCOc1ccccc1C=Nc1ccc(C(N)=O)cc1`, the displacement is -9.7%.

As to `O=c1[nH]nc(SCc2ccc(Cl)cc2)c(=O)[nH]1`, the displacement is -4.3%.

`O=S(=O)(/N=C(/c1ccc(F)cc1)N1CCOCC1)c1ccccc1`: the displacement came out at 18.1%.

For the compound `COc1cc(-c2cc(C(F)(F)F)n3ncc(C(=O)Nc4cccc5ccccc45)c3n2)cc(OC)c1OC`, the displacement is 5.9%.

Take `Cc1nc(C)c(/C(O)=C/c2nc3ccccc3[nH]c2=O)o1`: the displacement was -8.5%.

In the case of `COC(=O)c1ccc(/C=C2/C(=O)NC(=O)N(c3ccc(C(C)C)cc3)C2=O)cc1`, the displacement amounted to 2.5%.

For the compound `CCOc1ccccc1NC(=O)c1ccccc1`, the displacement worked out at 4.7%.

Turning to `CN(C)CCNc1ncnc2c1cnn2-c1ccccc1`, the displacement is -6.9%.

Turning to `O=c1c(Oc2ccccc2Br)coc2cc(O)ccc12`, the displacement amounted to 18.8%.

As for `CN1CCN(c2ccc(/C=C3\NC(=S)NC3=O)cc2[N+](=O)[O-])CC1`, the displacement turned out to be 17.7%.

As to `Cc1ccc(C(NC(=O)c2ccccc2)c2c(O)ccc3ccccc23)cc1` (configuration not stated), the displacement stood at 2.5%.

Regarding `CN(C)/C=N/c1sc2c(c1C#N)CCCC2`, the displacement is 12.2%.

Turning to `O=C(/C=C/c1ccccc1)Nc1nc2ccc(Br)cc2s1`, the displacement came to 15%.

Turning to `Cc1ccc(NC(=O)c2cc(I)ccc2Cl)cc1`, the displacement was found to be 11.4%.

Regarding `N#C/C(=N/Nc1ccccc1[N+](=O)[O-])C(=N)N1CCOCC1`, the displacement is 11.8%.

For `O=C(COc1ccc(Cl)cc1Br)Nc1ccc2c(c1)OCCO2`, the displacement came to 1.8%.

For the compound `CS(=O)(=O)N(Cc1ccccc1)c1ccc(C(=O)N2CCN(c3ccccc3)CC2)cc1`, the displacement is -5.7%.

As to `Cc1cccc(C2Nc3cccc4cccc(c34)N2)c1`, the displacement worked out at 20.1%.

For the compound `CCOc1ccc(/C=C2\C(=O)NC(=O)N(c3ccc(Cl)cc3)C2=O)cc1Br`, the displacement was -7.7%.

Turning to `COc1ccc(CCN2C(=O)CC(Cc3cccc(C)c3)C2=O)cc1OC` (configuration not stated), the displacement was 15.9%.

Turning to `COc1ccccc1-n1c(C)ccc1-c1ccccc1`, the displacement was -25.1%.

As for `Brc1ccccc1OCCCCN1CCCC1`, the displacement came out at 10%.

In the case of `CC1=CC(C)(C)Nc2ccc(OC(=O)COc3ccc4ccccc4c3)cc21`, the displacement amounted to 7.5%.

Regarding `CCOCCOC(=O)C1=C(C)NC2=C(C(=O)CCC2)C1c1cccc(F)c1` (configuration not stated), the displacement came to 15.8%.

For the compound `CCc1c(C)sc(NC(=O)C2CCCO2)c1C(N)=O` (configuration not stated), the displacement stood at 20%.

`CCOC(=O)C(CC)Sc1n[nH]c(=O)[nH]c1=O` (configuration not stated): the displacement amounted to 5.9%.

As to `Cc1ccc(S(=O)(=O)N2CCC(C(=O)O)CC2)c2nsnc12`, the displacement is -2.2%.

For the compound `Cc1c(NC(=O)c2cccnc2)cccc1NC(=O)c1cccnc1`, the displacement stood at 9.8%.

Values taken from PubChem BioAssay AID1240 (Sanford-Burnham Center for Chemical Genomics, 2008).
